Experimental data published in PubChem BioAssay (NCI).
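Values below derive from 48-hour exposures of cells grown in 96-well plates, with endpoints linearly interpolated between the two concentrations bracketing the appropriate inhibition level. At the GI50, growth is halved. Definition used: TGI = concentration required for complete inhibition of growth.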

tested on: NCI-H322M lung; test: growth of human tumour cells (NCI), 48 h

Row | SMILES | TGI | GI50
1 | O=c1c2c(-c3ccccc3)c3ccccc3nc2cnn1-c1ccccc1 | > 100 µM | 
2 | Cc1ccc(Cl)cc1N=NC(=O)NNc1cc(Cl)ccc1C | > 100 µM | 
3 | Cc1cccc2[nH]c3c(c(O)cc4[nH]c5cccc(C)c5c(=O)c43)c(=O)c12 | > 10 µM | 
4 | CCOc1cccc2c1N[S@@](=O)S2 | > 100 µM | 
5 | COc1ccc2c(c1)CN([C@@H](C)[C@H]1CC[C@H]3[C@@H]4CC[C@H]5C[C@@H](O)CC[C@]5(C)[C@H]4CC[C@]13C)CO2 | 10.8 µM | 
6 | Nc1nc2ccc(Sc3ccc4nc(N)[nH]c(=O)c4c3)cc2c(=O)[nH]1 | > 100 µM | 
7 | NC(=O)c1cccnc1 | > 100 µM | > 100 µM
8 | CC(=O)C(C)C(=O)N1C(=O)N(C)C2(C)N(C)C(=O)NC12C (stereo not drawn) | > 100 µM | 
9 | COc1cc(-c2ccc(N=Nc3ccc4c(S(=O)(=O)O)cc(S(=O)(=O)O)c(N)c4c3O)c(OC)c2)ccc1N=Nc1ccc2c(S(=O)(=O)O)cc(S(=O)(=O)O)c(N)c2c1O | > 100 µM | 
10 | CCn1cc(/C=C2\Oc3cc(OCC#N)ccc3C2=O)c2cc(OC)ccc21 | > 100 µM | 1.1 µM
11 | Nc1nc(N)c2cc(Sc3ccc4ccccc4c3)ccc2n1 | 5.36 µM | 
12 | CC(NC(=O)Cc1ccc(C(F)(F)P(=O)(OCc2ccc([N+](=O)[O-])o2)N(C)CCCCCl)cc1)c1ccc(OCC2CCCCC2)c(C(N)=O)c1 (stereo not drawn) | 26.7 µM | 10.8 µM
13 | COc1ccc(C2=NC(=O)NC2c2ccc(OC)cc2)cc1 (stereo not drawn) | > 100 µM | 23.8 µM
14 | COc1cccc2c1C(=O)c1c(O)c3c(c(O)c1C2=O)C[C@@](O)(C(=O)COC(=O)c1ccccc1)C[C@@H]3OC1CC(N)C(O)C(C)O1 (stereo partly drawn) | 1.55 µM | 0.387 µM
15 | C=C1C(=O)C23[C@H](O)C1CC[C@H]2[C@]12COC3(O)[C@@H](O)[C@@H]1C(C)(C)CC[C@@H]2O | 29.4 µM | 
16 | COc1ccc(-c2c(C#N)c(N)nc(N3CCOCC3)c2C#N)cc1 | 85.3 µM | 18.4 µM
17 | CN/N=C(/c1nc2ccc([N+](=O)[O-])cc2[nH]c1=O)C(O)c1ccc(C(O)/C(=N\NC)c2nc3ccc([N+](=O)[O-])cc3[nH]c2=O)cc1 (stereo not drawn) | > 100 µM | 

Row | SMILES | TGI | GI50
18 | O=C(Nc1cccc(F)c1)c1cc2ccc(O)cc2oc1=Nc1cccc(F)c1 | 36.8 µM | 
19 | COC(=O)C(=O)C(CC(=O)Nc1ccc(C)cc1)C(=O)OC (stereo not drawn) | > 100 µM | 
20 | Nc1ccc(-c2nc3ccc(F)cc3s2)cc1Cl | > 100 µM | 
21 | COc1cccc(-c2cc(=O)c3cc4c(cc3[nH]2)OCO4)c1 | > 100 µM | 
22 | C=C(CN1CCc2c([nH]c3ccccc23)C1)c1ccc(C(=O)Nc2ccccc2N)cc1 | 11.8 µM | 1.98 µM
23 | CCOC(=O)NC(Nc1cc(Cl)ccc1OC)(C(F)(F)F)C(F)(F)F | > 100 µM | 
24 | COc1ccc(Nc2nc(Nc3cc(C)[nH]n3)c3cc(OC)c(OC)cc3n2)cc1 | 2.24 µM | 1.01 µM
25 | Nc1[nH]c(=O)nc2snnc12 | > 100 µM | 
26 | CC1(C)CC(=O)c2c(nc3c(ccc4ccccc43)c2-c2ccc(NC(=O)CCC(=O)Nc3ccc(-c4c5c(nc6c4ccc4ccccc46)CC(C)(C)CC5=O)cc3)cc2)C1 | > 100 µM | 
27 | C[C@@H](C[C@H]1OC(C)(C)O[C@@H]1C(C)(C)O)[C@H]1CC=C2[C@]3(C)[C@H](O)C[C@H]4C(C)(C)[C@H](O)CC[C@]4(C)[C@H]3CC[C@]21C | 21.9 µM | 
28 | O=C1CCC2(c3ccccc3)Nc3ccccc3N12 (stereo not drawn) | > 100 µM | 
29 | COc1cc2c(c3c1c(=O)c1ccccc1n3C)C=CC(C)(C)O2 | > 100 µM | 
30 | COc1ccc(-c2nc(-c3nc4cc(Cl)c(F)cc4[nH]3)c3ccccn23)cc1 | > 100 µM | 6.87 µM
31 | O=C(c1cccs1)c1nccc2c1cnc1ccccc12 | > 100 µM | 
32 | Cc1ccc(O)c(C2=CC3=NNC(=O)C3C(c3cccc(Cl)c3)C2)c1 (stereo not drawn) | 57.1 µM | 
33 | CCOc1ccc(N=C2NC(=O)C(CC(=O)Nc3ccccc3[N+](=O)[O-])S2)cc1 (stereo not drawn) | > 100 µM | 
34 | c1cc2c3c(c1)c1cc4c(cc1c[n+]3CC2)OCO4 | 39.9 µM | 
